The chains are these.
B1: Caulobacter ParB omega fusion; a variant is named by its letters at X, in order, B8GW30 (parent)
chain: MESVVVGEPGMSEGRRGLGRGLSALLGEVDAAPAQAPGEQLGGSREAPIEILQRNPDQPRRTFREEDLEDLSNSIREKGVLQPILVRPSPDTAGEYQIVAGERAWRAAQRAGLKTVPIMVRELDDLAVLEIGIIENVQRADLNVLEEALSYKVLMEKFERTQENIAQTIGKSXSHVANXMRLLXLPDEVQSYLVSGELTAXHARAIAAAADPVALAKQIIEGGLSVRETEALARKAPNLSAGKSKGGRPPRVKDTDTQALESDLSSVLGLDVSIDHRGSTGTLTITYATLEQLDDLCNRLTRGI

The full ranking holds about 81,000 sequences; the median of “one-hybrid fitness for binding NBS DNA” is about -0.1, and the highest 2% start at about 0.36. Some of the results follow.

The variants in the test derive from B1. In words: one-hybrid fitness for binding NBS DNA (the Noc-binding site; scaled: cognate 1, non-cognate 0); higher = stronger binding. To be noted: with NBS DNA site. Put shortly:
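Fitness here means the log change in variant-to-wild-type read ratio between plasmids sequenced before and after selection. That scale was set so cognate equals 1 and non-cognate equals 0. The selection was a bacterial one-hybrid screen of Caulobacter ParB libraries, four specificity codons randomised, in E. coli USO carrying a HIS3 reporter with the site 19 bp from the promoter, grown 48 hours at 37°C on M9-minus-histidine with 0.1 mM IPTG and 5 mM 3-AT.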
With LNFL, the “one-hybrid fitness for binding NBS DNA” value is at most 0.2.
Consider DYMG, for which the “one-hybrid fitness for binding NBS DNA” value is at most 0.2.
For RGKC, the “one-hybrid fitness for binding NBS DNA” value is at most 0.2.
In the case of MCRM, the “one-hybrid fitness for binding NBS DNA” value was at most 0.2.
To HAPT belongs at most 0.2; to QNPS, at most 0.2; to RKCM, at most 0.2.
VSGN: the “one-hybrid fitness for binding NBS DNA” value was at most 0.2.
The result for CDWS reads at most 0.2; that for MPDT, at most 0.2.
To NWVS belongs at most 0.2.
Take RAHC: the “one-hybrid fitness for binding NBS DNA” value is at most 0.2.
For the variant CQMG, the “one-hybrid fitness for binding NBS DNA” value was at most 0.2.
As for TPWY, the “one-hybrid fitness for binding NBS DNA” value was at most 0.2.
To TSCR belongs at most 0.2; to PAPW, at most 0.2.
The result for GNDY reads at most 0.2; that for DSCS, at most 0.2.
For the variant GPQR, the “one-hybrid fitness for binding NBS DNA” value was at most 0.2.
The result for QASV reads at most 0.2.
As to APSI, the “one-hybrid fitness for binding NBS DNA” value is at most 0.2.
As for LPTE, the “one-hybrid fitness for binding NBS DNA” value was at most 0.2.
As for HWMS, the “one-hybrid fitness for binding NBS DNA” value is at most 0.2.
To SLLD belongs at most 0.2.
To AYIV belongs at most 0.2.
In the case of NHKS, the “one-hybrid fitness for binding NBS DNA” value is at most 0.2.
In the case of IDMS, the “one-hybrid fitness for binding NBS DNA” value was at most 0.2.
For the variant CVWV, the “one-hybrid fitness for binding NBS DNA” value was at most 0.2.
In the case of KTNA, the “one-hybrid fitness for binding NBS DNA” value was at most 0.2.
The result for VETW reads at most 0.2.
Take DMTV: the “one-hybrid fitness for binding NBS DNA” value is at most 0.2.
For VRIW, the “one-hybrid fitness for binding NBS DNA” value was at most 0.2.
In the case of PMSR, the “one-hybrid fitness for binding NBS DNA” value is at most 0.2.
For the variant FNVR, the “one-hybrid fitness for binding NBS DNA” value is at most 0.2.
To ACAL belongs at most 0.2; to IKTG, at most 0.2.
For DCMR, the “one-hybrid fitness for binding NBS DNA” value is at most 0.2.
With WQMG, the “one-hybrid fitness for binding NBS DNA” value is at most 0.2.
In the case of ETPF, the “one-hybrid fitness for binding NBS DNA” value was at most 0.2.
For GLLE, the “one-hybrid fitness for binding NBS DNA” value was at most 0.2.
Turning to CHLS, the “one-hybrid fitness for binding NBS DNA” value is at most 0.2.
To VPSF belongs at most 0.2.
For the variant WCYR, the “one-hybrid fitness for binding NBS DNA” value was at most 0.2.
For TTTP, the “one-hybrid fitness for binding NBS DNA” value was at most 0.2.
To SSKS belongs at most 0.2; to KKMV, at most 0.2; to YNTL, at most 0.2.
Regarding PRYC, the “one-hybrid fitness for binding NBS DNA” value was at most 0.2.
As for RSRG, the “one-hybrid fitness for binding NBS DNA” value was at most 0.2.
Take THMS: the “one-hybrid fitness for binding NBS DNA” value was at most 0.2.
The result for QMYA reads 0.267.
Take PSVA: the “one-hybrid fitness for binding NBS DNA” value is at most 0.2.
For GCQG, the “one-hybrid fitness for binding NBS DNA” value was at most 0.2.
The result for SQRC reads at most 0.2; that for LKLA, at most 0.2.
To YCTD belongs at most 0.2; to STLV, at most 0.2; to RLHT, 0.437.
With AEGI, the “one-hybrid fitness for binding NBS DNA” value was at most 0.2.
Regarding PTTL, the “one-hybrid fitness for binding NBS DNA” value is at most 0.2.
As to RTMI, the “one-hybrid fitness for binding NBS DNA” value was at most 0.2.
For the variant WRES, the “one-hybrid fitness for binding NBS DNA” value was at most 0.2.
Turning to QLWR, the “one-hybrid fitness for binding NBS DNA” value was 0.319.
To ANMV belongs at most 0.2; to VGEF, at most 0.2; to RDDR, at most 0.2.
Take FEMR: the “one-hybrid fitness for binding NBS DNA” value was at most 0.2.
Consider PRKN, for which the “one-hybrid fitness for binding NBS DNA” value is at most 0.2.
Take RSSE: the “one-hybrid fitness for binding NBS DNA” value was at most 0.2.
For TNVV, the “one-hybrid fitness for binding NBS DNA” value is at most 0.2.
To CNQS belongs at most 0.2; to RQDQ, at most 0.2.
With RANT, the “one-hybrid fitness for binding NBS DNA” value came out at 0.496.
With RNMM, the “one-hybrid fitness for binding NBS DNA” value was at most 0.2.
With QSLH, the “one-hybrid fitness for binding NBS DNA” value is at most 0.2.
For GEIS, the “one-hybrid fitness for binding NBS DNA” value was at most 0.2.
Regarding RMDS, the “one-hybrid fitness for binding NBS DNA” value was at most 0.2.
In the case of PQII, the “one-hybrid fitness for binding NBS DNA” value was at most 0.2.
Turning to CIFG, the “one-hybrid fitness for binding NBS DNA” value is at most 0.2.
To FPKR belongs at most 0.2.
Consider FHTA, for which the “one-hybrid fitness for binding NBS DNA” value is at most 0.2.
Regarding RWSI, the “one-hybrid fitness for binding NBS DNA” value is at most 0.2.
The result for NTTE reads at most 0.2.
For PGCV, the “one-hybrid fitness for binding NBS DNA” value is at most 0.2.
As to CIYR, the “one-hybrid fitness for binding NBS DNA” value was at most 0.2.
In the case of HIHR, the “one-hybrid fitness for binding NBS DNA” value was at most 0.2.
Take QGTV: the “one-hybrid fitness for binding NBS DNA” value is at most 0.2.
Consider EGPG, for which the “one-hybrid fitness for binding NBS DNA” value was at most 0.2.
To SVPH belongs at most 0.2; to SWPC, at most 0.2; to HLIC, at most 0.2.
For RYAK, the “one-hybrid fitness for binding NBS DNA” value is at most 0.2.
On to CSFP, for which the “one-hybrid fitness for binding NBS DNA” value is at most 0.2.
In the case of SWVK, the “one-hybrid fitness for binding NBS DNA” value was at most 0.2.
For RFTK, the “one-hybrid fitness for binding NBS DNA” value was at most 0.2.
Regarding RGNW, the “one-hybrid fitness for binding NBS DNA” value is at most 0.2.
Regarding RAAY, the “one-hybrid fitness for binding NBS DNA” value was at most 0.2.
In the case of RTHW, the “one-hybrid fitness for binding NBS DNA” value is at most 0.2.
On to FGHL, for which the “one-hybrid fitness for binding NBS DNA” value is at most 0.2.
Regarding FWRS, the “one-hybrid fitness for binding NBS DNA” value is at most 0.2.
On to SPVF, for which the “one-hybrid fitness for binding NBS DNA” value is at most 0.2.
In the case of WNKS, the “one-hybrid fitness for binding NBS DNA” value was at most 0.2.
For MVDT, the “one-hybrid fitness for binding NBS DNA” value is at most 0.2.
For the variant PMNI, the “one-hybrid fitness for binding NBS DNA” value was at most 0.2.
As to WLVT, the “one-hybrid fitness for binding NBS DNA” value is at most 0.2.
Consider VLMR, for which the “one-hybrid fitness for binding NBS DNA” value is at most 0.2.
As to EKDS, the “one-hybrid fitness for binding NBS DNA” value was at most 0.2.
As to AKKL, the “one-hybrid fitness for binding NBS DNA” value was at most 0.2.
Take SNFS: the “one-hybrid fitness for binding NBS DNA” value is at most 0.2.
On to GMYM, for which the “one-hybrid fitness for binding NBS DNA” value is at most 0.2.
Regarding FSLK, the “one-hybrid fitness for binding NBS DNA” value was at most 0.2.
Take TPRR: the “one-hybrid fitness for binding NBS DNA” value stood at 0.276.
To RYIG belongs at most 0.2; to RRGI, at most 0.2.
To QSVT belongs 0.328; to EDIR, at most 0.2.
Consider GRKA, for which the “one-hybrid fitness for binding NBS DNA” value was at most 0.2.
For WSKC, the “one-hybrid fitness for binding NBS DNA” value was at most 0.2.
ATSP: the “one-hybrid fitness for binding NBS DNA” value was at most 0.2.
To MCTF belongs at most 0.2; to QMAT, 0.505.
As for DHLR, the “one-hybrid fitness for binding NBS DNA” value is at most 0.2.
As for WTCC, the “one-hybrid fitness for binding NBS DNA” value was at most 0.2.
In the case of TQSA, the “one-hybrid fitness for binding NBS DNA” value was at most 0.2.
Consider KSKS, for which the “one-hybrid fitness for binding NBS DNA” value was at most 0.2.
Take EMDR: the “one-hybrid fitness for binding NBS DNA” value is at most 0.2.
For the variant WMCS, the “one-hybrid fitness for binding NBS DNA” value is at most 0.2.
As for PHQT, the “one-hybrid fitness for binding NBS DNA” value was at most 0.2.
Turning to NEGL, the “one-hybrid fitness for binding NBS DNA” value is at most 0.2.
On to LHLG, for which the “one-hybrid fitness for binding NBS DNA” value is at most 0.2.
As for DDTG, the “one-hybrid fitness for binding NBS DNA” value was at most 0.2.
To PKHR belongs at most 0.2; to VNVA, at most 0.2.
In the case of LENF, the “one-hybrid fitness for binding NBS DNA” value was at most 0.2.
With PKEE, the “one-hybrid fitness for binding NBS DNA” value is at most 0.2.
For the variant KSVF, the “one-hybrid fitness for binding NBS DNA” value was at most 0.2.
To EDAK belongs at most 0.2.
LQSG: the “one-hybrid fitness for binding NBS DNA” value is at most 0.2.
EERL: the “one-hybrid fitness for binding NBS DNA” value is at most 0.2.
As for ILPF, the “one-hybrid fitness for binding NBS DNA” value was at most 0.2.
As for DSHE, the “one-hybrid fitness for binding NBS DNA” value was at most 0.2.
Consider PFLG, for which the “one-hybrid fitness for binding NBS DNA” value is at most 0.2.
The result for NCVS reads at most 0.2; that for PNSV, at most 0.2; that for PETY, at most 0.2.
The result for TPHS reads at most 0.2.
Consider YWRT, for which the “one-hybrid fitness for binding NBS DNA” value was at most 0.2.
To VIKV belongs at most 0.2.
The result for PKGL reads at most 0.2.
As to DTRC, the “one-hybrid fitness for binding NBS DNA” value was at most 0.2.
As to MDNA, the “one-hybrid fitness for binding NBS DNA” value is at most 0.2.
The result for HTDN reads at most 0.2; that for QTPK, at most 0.2.

Values taken from a collection of fitness landscapes (doi:10.1016/j.celrep.2020.107928).
